# Results taken from the supplement of paper PMC3334620.
# In all, about 33,000 sequences were measured (“E-score (-0.5 to 0.5)”: median about -0.035, highest 2% from about 0.35 on). Some of the results follow.
# Biological target: T1, Pdr3 (UniProt P33200)
# T1 sequence: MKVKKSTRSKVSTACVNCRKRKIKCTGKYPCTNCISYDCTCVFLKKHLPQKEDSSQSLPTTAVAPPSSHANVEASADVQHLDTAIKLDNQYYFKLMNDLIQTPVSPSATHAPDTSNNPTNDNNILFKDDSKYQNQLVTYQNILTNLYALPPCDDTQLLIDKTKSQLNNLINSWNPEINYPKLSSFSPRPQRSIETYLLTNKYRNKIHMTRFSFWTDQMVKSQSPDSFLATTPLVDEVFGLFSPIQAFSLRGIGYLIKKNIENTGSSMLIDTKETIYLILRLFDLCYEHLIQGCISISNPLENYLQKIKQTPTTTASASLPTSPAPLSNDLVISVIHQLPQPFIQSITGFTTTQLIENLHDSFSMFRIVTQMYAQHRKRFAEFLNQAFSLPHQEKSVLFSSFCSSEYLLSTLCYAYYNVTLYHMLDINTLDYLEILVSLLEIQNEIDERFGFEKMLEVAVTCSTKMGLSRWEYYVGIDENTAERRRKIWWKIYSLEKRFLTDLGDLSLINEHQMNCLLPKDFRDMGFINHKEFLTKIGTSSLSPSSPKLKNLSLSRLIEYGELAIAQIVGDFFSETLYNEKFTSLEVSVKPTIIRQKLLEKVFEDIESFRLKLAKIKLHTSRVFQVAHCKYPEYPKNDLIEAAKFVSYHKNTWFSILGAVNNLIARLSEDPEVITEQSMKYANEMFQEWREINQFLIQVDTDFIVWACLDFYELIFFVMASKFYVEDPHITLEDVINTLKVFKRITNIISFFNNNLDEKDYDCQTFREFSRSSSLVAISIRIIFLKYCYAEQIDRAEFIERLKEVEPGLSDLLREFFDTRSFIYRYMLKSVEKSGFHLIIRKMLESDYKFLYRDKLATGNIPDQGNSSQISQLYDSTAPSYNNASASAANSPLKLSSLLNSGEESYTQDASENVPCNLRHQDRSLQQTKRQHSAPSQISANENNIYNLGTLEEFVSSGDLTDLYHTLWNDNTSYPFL
# Test: PBM E-score (8-mer binding enrichment) (E-score (-0.5 to 0.5)); higher = stronger / more preferred TF binding; most listed sequences are background and not binding sites
# Details: protein concentration: 200 nM; construct: GST-full length
# In short: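 Masliner-normalised scans of fluorescent anti-GST signal were the basis for scoring. That signal came from GST-tagged yeast transcription factors applied at about 100-200 nM to double-stranded universal all-10-mer Agilent arrays on fresh or once-stripped slides. Each ungapped eight-base word, pooled with its reverse complement, received an E-score from the Universal PBM Analysis Suite.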
row,Sequence,PBM E-score
1,TATATGGA,-0.0393
2,ACGTGTTC,-0.0582
3,TACGCTAA,-0.197
4,AGTTCCAC,-0.00065
5,ATCCAAAC,0.0577
6,CGGCGCGC,0.245
7,AACCAGCC,0.104
8,AGATTCAC,-0.123
9,CCAAGTGG,-0.00255
10,TATATTCA,0.121
11,GTATTGCA,-0.0564
12,CCCGATAA,0.123
13,TCTGTGAA,-0.0705
14,CAGTTATA,0.0428
15,TAGTACCA,-0.112
16,CGCTCGGA,0.359
17,AACCCCTC,-0.12
18,CCGTAGAC,0.0889
19,ACCTTCCT,-0.244
20,CAATAACG,0.0557
21,CCCTCTAA,-0.272
22,CAACTCGC,0.0348
23,ATAGCGAA,-0.113
24,GTCACAGA,-0.0547
25,CACGTACG,-0.2

row,Sequence,PBM E-score
1,AGACGGTC,-0.207
2,TGAGAGAA,-0.168
3,CTTATTTA,-0.17
4,TAGGCCGA,0.043
5,CAACATGC,-0.0624
6,CTGTTTTA,-0.0295
7,CGAGTGGA,0.0186
8,AAAAGGTC,-0.215
9,GCACCGGA,0.377
10,CCAATACC,0.0817
11,CGTCCGTA,0.176
12,ACCTAGAT,-0.0892
13,CTTGTCCA,-0.0525
14,CAACAATC,-0.0101
15,ATAAGCAG,-0.127
16,ACCCGGGC,0.424
17,ACTATACC,0.0352
18,CGTACGGA,0.281
19,CCTAGAGG,-0.243
20,AAGTTACT,0.00994
21,GTTGACCA,-0.0689
22,TGTTCTAA,-0.0541
23,AACGGGAC,0.217
24,CACCCCGA,0.17
25,GCACGTCC,0.115

row,Sequence,PBM E-score
1,CGCGCGCA,0.347
2,ATCCTCGC,0.0538
3,GGTGTCTA,-0.197
4,AGGGTAGC,-0.151
5,GGGTGAAA,0.0587
6,AGATTAAG,-0.0641
7,AGTCGACG,0.213
8,ATTAACTC,0.0635
9,TGGCGCAA,-0.0179
10,GCCGTGAA,0.228
11,AGAGCACC,-0.104
12,TCAATACA,-0.0685
13,AATGAAAG,-0.103
14,AAGAGTCA,-0.245
15,AGCGAGTG,0.0622
16,GTGTGCTA,0.00872
17,ATAACACC,0.11
18,CATGCGTC,-0.0338
19,ATATCTCG,0.059
20,AGCCGAGC,0.267
21,GAGCGAAC,-0.176
22,CGGTATGA,0.117
23,GAGCGTCA,-0.0649
24,AGCGGACA,0.154
25,ACATAAAC,-0.00238

row,Sequence,PBM E-score
1,AATAAACC,0.167
2,ATTAACGC,-0.0216
3,TCGCCAGA,-0.206
4,AGACAGCA,-0.0918
5,CATACTCG,0.139
6,ACCGAAAG,-0.146
7,AAGTGTTA,-0.0139
8,TACTACAA,0.119
9,ACGTGATA,-0.0938
10,AAAAAAGA,-0.115
11,CTACTCGA,-0.0547
12,TCACCGAA,0.0178
13,AATTAGCA,0.103
14,CTAGTACC,-0.184
15,GTAGGATA,-0.0665
16,ACGAGAAG,-0.278
17,AATCCACG,-0.0307
18,TAAGCATA,-0.125
19,ATGAAGTC,-0.212
20,CAGTCCAA,-0.141
21,ACACGAGA,-0.0914
22,ATGGGCCA,0.00407
23,AATATAAC,0.00257
24,AAATGGTT,-0.099
25,CGCCCGAC,0.223

row,Sequence,PBM E-score
1,TACGCCCA,-0.147
2,CGGTATAG,0.095
3,CATCCTTC,-0.104
4,CTTAATGC,-0.108
5,AAACAATT,0.115
6,AAACGGTG,-0.255
7,CTAATTAA,-0.0717
8,AACAATAT,0.156
9,AGGGGAGC,-0.0507
10,CACCGGAG,0.253
11,ACAAACCC,0.0124
12,GGACGGCC,0.188
13,AAGTCTAA,-0.234
14,CAATTTAG,-0.0844
15,CGGGTCGC,0.184
16,TAGGTAAA,-0.253
17,TGTAGAAA,-0.142
18,TCTCATAA,-0.236
19,ATGCTCAC,-0.048
20,CCTTCGCC,-0.0542
21,ATTCGCGG,0.253
22,ACATCTCC,0.235
23,AACCTGGA,-0.0353
24,CCCCTCAG,-0.174
25,CATACAAC,-0.128

row,Sequence,PBM E-score
1,CCGGATTC,0.337
2,CTCCTACA,-0.157
3,AACCACTT,-0.0646
4,AGCTTCCC,-0.0703
5,TGCTACAA,-0.0149
6,GAGAAAGC,0.012
7,CCAGTTGA,-0.106
8,GATAGATC,5e-05
9,ACTCCTGA,-0.156
10,AACCACGT,-0.24
11,TACCTGCA,-0.045
12,CACTCGGA,0.328
13,ACCCCGCT,0.211
14,GGATGCTA,0.0348
15,ATGTCCCA,-0.149
16,ATTCCAAG,-0.0466
17,AATCATAA,-0.0865
18,ATGTGGTC,-0.0765
19,TAAGTGCA,-0.146
20,CCGCTACC,0.231
21,AGACACTA,-0.0235
22,ACCCAAAT,-0.11
23,GATAGGGA,-0.147
24,GAAATCAC,0.186
25,AAAATTCT,-0.0203

row,Sequence,PBM E-score
1,CTGTTCCC,0.0618
2,CGGGGATC,0.28
3,AGTCGCCG,0.168
4,AAGTTGTC,0.035
5,CAGCTCGA,-0.0456
6,AGAAACGG,0.19
7,GCTGATTA,0.0645
8,GACGCGTA,-0.0308
9,GGTAACAA,0.12
10,CATACTAC,0.072
11,AGTACACG,-0.00706
12,TCCCACGA,0.0987
13,CCGGACTA,0.333
14,GCTAGGTA,-0.162
15,AGGGTAAG,-0.118
16,TAAACGCA,-0.104
17,AGATGAAT,-0.18
18,CACACGAC,-0.104
19,AAGTTGTG,-0.00949
20,AACAAATA,0.158
21,ATTACACG,0.11
22,AAAAACGT,-0.168
